# In all, about 45,000 compounds went through this assay and about 200 (0.44%) were called active. Inconclusive results (about 7%) are left out. Calls follow the shape of the dose curve; as a rule, active = well fitted activation curve with a large enough effect; inconclusive = small, poorly fitted or top-dose-only effect; inactive = no such curve, though single readings can be large or run the other way. Some of the results follow.
# Assay: qHTS of TDP-43 Inhibitors: NCGC Sytravon Library Screen; also: 0% is about no effect; nearly all actives have a fitted effect of over 55% in size
# Conditions: yeast TDP-43 toxicity rescue, BacTiter-Glo growth, 24 h; series mostly up to 46.1 µM; growth rescue (activation): at the top concentration
# Procedure, shortened: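 TDP-43-expressing yeast, pregrown in raffinose, seeded at OD600 0.02 in galactose medium with compound for 24 hr at 30 deg C. Growth read by BacTiter-Glo luminescence, so rescue of toxicity appears as activation.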
row,SMILES,growth rescue (activation)
1,COc1ccc(CC(=O)NNS(=O)(=O)c2ccc(F)cc2)cc1,inactive: 2.31%
2,COc1cc(/C=C/[N+](=O)[O-])ccc1OCc1cccc(C(=O)O)c1,inactive: -18.3%
3,CCC(C)(C(=O)Nc1ccc(OC)cc1)N(C)C(=O)Cn1nnnc1N (configuration not stated),inactive: 1.65%
4,COc1ccccc1C(=O)NCC(=O)NCCc1ccc(Cl)cc1,inactive: -0.466%
5,O=C1C=C(O)C(n2cncn2)C(c2ccc(F)cc2)C1 (configuration not stated),inactive: 8.44%
6,NC(=O)c1ccc(NC(=O)COC(=O)c2ccc3ccccc3n2)cc1,inactive: 2.67%
7,COc1cccc(NC(=O)C2(C)CCN2Cc2ccccc2Cl)c1 (configuration not stated),inactive: 0.338%
8,Cc1ccc(N2C(=O)CC(NNc3nc4ccccc4s3)C2=O)cc1 (configuration not stated),inactive: 42.5%
9,COc1ccc2[nH]cc(CCNC(=O)CS(=O)(=O)Cc3ccccc3)c2c1,inactive: 13.8%
10,Cc1cc(NC(=O)CCC(=O)NNC(=O)c2ccc(C(C)(C)C)cc2)no1,inactive: -14.5%
11,O=C(Nc1ccc(N2CCOCC2)cc1)c1nc2ccccc2s1,inactive: 16.9%
12,CC(=O)N1C(=O)/C(=C2\SC(=S)N(NC(=O)c3ccc(O)cc3)C2=O)c2ccccc21,inactive: 0.675%
13,CN1CCCN(C(=O)CC2(CC(=O)O)CCCCC2)CC1,inactive: -0.141%
14,COc1ccc(CNC(=O)C(C)N2C(=O)COc3ccc(C)cc32)c(OC)c1 (configuration not stated),inactive: -1.31%
15,O=C(c1ccc(S(=O)(=O)NCc2ccco2)cc1)N1CCCC1,inactive: 3.29%
16,COc1c(OC(C)=O)ccc(/C=N\NC(=O)c2ccc(Br)cc2)c1[N+](=O)[O-],inactive: 7.39%
17,COc1ccc(NC(=O)C(CC(=O)O)Cc2ccc(Br)cc2)cc1 (configuration not stated),inactive: -15%
18,CC1CC(C)CN(CCOCCSc2ccc(Cl)cc2)C1 (configuration not stated),inactive: 12.3%
19,Nc1ccc(Cl)c(S(=O)(=O)Nc2ccc(Cl)cc2)c1,inactive: 11.6%
20,O=C(NC1CCCCC1)c1cc(-c2ccc(O)cc2)on1,inactive: 16.5%
21,CC(C)=CCN1CCN(CCCn2cccn2)CC1CCO (configuration not stated),inactive: -17.6%
22,CC(C)CNC(=O)C1(C)CCCN1C(=O)c1cccnc1 (configuration not stated),inactive: 7.33%
23,O=C(N/N=C/c1ccncc1)c1ccc(NC(=O)c2ccc(Cl)cc2)cc1,inactive: 11.4%
24,COc1ccc(C(=O)Nc2ccc3c(c2)nc(CCNC(=O)c2ccco2)n3C)cc1,inactive: 4.35%
25,CC(C)CNc1ncnc2c1ncn2[C@H]1CN(Cc2ccc(Cl)cc2)C[C@@H](CO)O1,inactive: 12.2%
26,Cc1ccc(SCC(=O)OCC(=O)NCCc2ccc(S(N)(=O)=O)cc2)c(C)c1,inactive: 10.2%

row,SMILES,growth rescue (activation)
1,Cc1ccc(NC(=O)C(C)N2CCc3ccccc3C2)cc1 (configuration not stated),inactive: 0.583%
2,Cc1ccc(-n2nc(C)c(C3(O)C(=O)N(C(C)C)c4ccccc43)c2N)cc1 (configuration not stated),inactive: -9.77%
3,Cc1cccc(C)c1NC(=O)COC(=O)c1ccccc1Nc1ccccc1,inactive: 1.64%
4,CCOc1ccc(C(=O)OCC(=O)NCc2ccccc2)cc1OCC,inactive: 22.5%
5,CC(C)NC(=O)C1(C)CCCN1C(=O)c1ccccc1Br (configuration not stated),inactive: 15.8%
6,O=C(COC(=O)/C=C/c1ccccc1)NCCc1ccc(F)cc1,inactive: 2.31%
7,N#CCCn1c(SCC(=O)Nc2ccc(N3CCOCC3)cc2)nc2ccccc21,inactive: 9.24%
8,COc1ccc(S(=O)(=O)N2CCC(C(=O)NC3CCCC3)CC2)cc1OC,inactive: 13.7%
9,CN(c1ccccc1)S(=O)(=O)c1ccc(Cl)c(C(=O)NCCc2c[nH]c3ccccc23)c1,inactive: -0.221%
10,O=C(CNC(=O)Cc1cccc2ccccc12)NCc1ccccc1F,inactive: -1.22%
11,CC(OC(=O)c1ccc(C#N)cc1)C(=O)Nc1ccc(Cl)cn1 (configuration not stated),inactive: -16.3%
12,COc1ccc(OC)c(/C=C/C(=O)OCC(=O)Nc2cccc(C(C)=O)c2)c1,inactive: 15.8%
13,CN(CC(=O)Nc1ccc(C#N)cc1)CC(=O)Nc1ccc(N2CCOCC2)cc1,inactive: -20.4%
14,O=C(O)CC12C[C@H]3C[C@@H](C1)CC(n1ncc(N4CCN(c5ccccc5)CC4)c(Cl)c1=O)(C3)C2,inactive: 6.86%
15,C/C(Cc1ccccc1)=N\NC(=O)CNC(=O)c1ccccc1Cl,inactive: 12.4%
16,CCNC(=O)NC(=O)C(C)Sc1nc2ccccc2c(=O)n1-c1cccnc1 (configuration not stated),inactive: 7.26%
17,COc1cc(Cl)c(C)cc1NC(=O)COc1ccc(C)nc1[N+](=O)[O-],inactive: 17.6%
18,Cc1cccc(NS(=O)(=O)c2ccc3[nH]c(=O)oc3c2)c1C,inactive: 1.26%
19,C1=C(CCNc2ncnc3c2[nH]c2ccccc23)CCCC1,inactive: 16.4%
20,Cc1c(NS(=O)(=O)c2cccc(C(=O)NCc3ccccc3Cl)c2)c(=O)n(-c2ccccc2)n1C,inactive: 3.88%
21,COc1cccc(CC(=O)N2CCN(c3ccccc3[N+](=O)[O-])CC2)c1,inactive: 4.1%
22,CCOc1cc(Br)c(COc2ccc(C)nc2[N+](=O)[O-])cc1OCC,inactive: -1.33%
23,CCN(C(=O)CSc1nnnn1-c1ccc(Cl)cc1)C1CCS(=O)(=O)C1 (configuration not stated),inactive: -0.699%
24,O=C(CSc1cc(Cl)ccc1Cl)NCCN1C(=O)CSC1=O,inactive: 5.35%
25,Cc1cccc(NC(=O)CSc2cccc[n+]2[O-])c1C,inactive: -13.5%
26,CCCNC(=O)C1(C)CCN(C(=O)c2ccc3c(c2)CCO3)C1 (configuration not stated),inactive: -0.193%
